Among all 310,000 compounds or so, about 14,000 (4.5%) showed an effect of 50% or more. The effect is printed as a negative number. This is one part of the list.
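Also: peak tail current of the secondary pulse compared with the same well before compound.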

The target in the assay is human ether-à-go-go-related gene (hERG) potassium channel (human, UniProt Q12809). In words: primary screen, population patch clamp on CHO cells stably expressing hERG.
human ether-à-go-go-related gene (hERG) potassium channel, sequence (Q12809 whole entry, looked up): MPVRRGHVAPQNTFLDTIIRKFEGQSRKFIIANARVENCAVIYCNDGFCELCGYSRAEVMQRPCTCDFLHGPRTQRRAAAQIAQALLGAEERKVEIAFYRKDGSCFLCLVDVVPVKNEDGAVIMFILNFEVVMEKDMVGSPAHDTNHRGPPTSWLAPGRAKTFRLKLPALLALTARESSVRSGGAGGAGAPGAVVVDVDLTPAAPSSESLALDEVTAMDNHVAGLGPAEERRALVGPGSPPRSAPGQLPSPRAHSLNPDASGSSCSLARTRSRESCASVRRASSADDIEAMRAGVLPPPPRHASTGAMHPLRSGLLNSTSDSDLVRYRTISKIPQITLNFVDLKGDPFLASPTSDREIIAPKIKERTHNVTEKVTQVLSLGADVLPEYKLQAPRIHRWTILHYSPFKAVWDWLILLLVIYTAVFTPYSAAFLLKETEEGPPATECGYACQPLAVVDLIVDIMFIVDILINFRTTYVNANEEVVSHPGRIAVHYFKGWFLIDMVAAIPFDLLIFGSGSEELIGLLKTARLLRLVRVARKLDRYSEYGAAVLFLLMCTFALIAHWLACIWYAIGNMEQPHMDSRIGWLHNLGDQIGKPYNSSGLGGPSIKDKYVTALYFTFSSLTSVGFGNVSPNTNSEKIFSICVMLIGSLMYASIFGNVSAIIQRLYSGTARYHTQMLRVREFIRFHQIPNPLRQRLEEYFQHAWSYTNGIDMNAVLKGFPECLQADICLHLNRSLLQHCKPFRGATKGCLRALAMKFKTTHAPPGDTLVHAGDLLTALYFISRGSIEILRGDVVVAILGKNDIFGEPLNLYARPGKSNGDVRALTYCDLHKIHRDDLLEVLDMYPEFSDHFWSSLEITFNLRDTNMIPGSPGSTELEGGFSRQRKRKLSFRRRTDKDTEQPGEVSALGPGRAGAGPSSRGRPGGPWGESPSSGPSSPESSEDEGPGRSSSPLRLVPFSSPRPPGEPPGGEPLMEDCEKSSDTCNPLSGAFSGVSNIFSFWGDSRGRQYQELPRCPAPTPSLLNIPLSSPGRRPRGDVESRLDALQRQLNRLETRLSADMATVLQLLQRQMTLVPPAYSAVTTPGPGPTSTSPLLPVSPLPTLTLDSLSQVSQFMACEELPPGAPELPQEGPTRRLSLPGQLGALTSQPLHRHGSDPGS
For the compound `COc1ccc(-c2cccc(C(=O)Nc3cccc(C(=O)O)c3)c2)cc1`, the “hERG current change (%, negative = inhibition) at 10uM” value stood at 13.9%.

On to `O=C(NCc1ccco1)c1ccccc1-c1nc(-c2ccc(F)cc2)no1`, for which the “hERG current change (%, negative = inhibition) at 10uM” value is given as -20.4%.

For `O=C(CN(Cc1cccs1)C(=O)CSc1nnc(COc2ccccc2)o1)NC1CCCCC1`, the “hERG current change (%, negative = inhibition) at 10uM” value is recorded as -5.41%.

Take `Cc1cc(S(=O)(=O)NCCCN2CCOCC2)ccc1Br.Cl`: the “hERG current change (%, negative = inhibition) at 10uM” value was -18.2%.

For `O=C(COc1ccc(Cl)cc1Cl)N1CCN(c2ccccn2)CC1`, the “hERG current change (%, negative = inhibition) at 10uM” value is reported as -33.3%.

On to `O=C(Nc1ccc(S(=O)(=O)N2CCCC2)cc1)c1ccccc1`, for which the “hERG current change (%, negative = inhibition) at 10uM” value was -7.24%.

Turning to `CC(C)CCNC(=O)C(c1ccco1)N(CC1CCCO1)C(=O)Cn1nnc2ccccc21` (stereo not shown), the “hERG current change (%, negative = inhibition) at 10uM” value stood at 11.4%.

Turning to `CN1C(=O)[C@H]2[C@@H](/C=C/c3ccccc3)N3C(=O)CN(Cc4ccccc4)C(=O)[C@@]3(C)[C@H]2C1=O`, the “hERG current change (%, negative = inhibition) at 10uM” value is -10.7%.

Consider `O=C(N/N=C/c1cccc(C(F)(F)F)c1)c1cc2c(s1)-c1ccccc1CC2`, for which the “hERG current change (%, negative = inhibition) at 10uM” value is on record as 1.25%.

As for `Cc1ccc(Cl)cc1N1CCN(C(=O)c2ccccc2SCC(=O)N2CCCC2)CC1`, the “hERG current change (%, negative = inhibition) at 10uM” value is on record as -47.5%.

With `CCOC(=O)c1oc2ccc(CNC3CCCCC3)c(Cl)c2c1C.O=C(O)C(=O)O`, the “hERG current change (%, negative = inhibition) at 10uM” value is reported as -38.8%.

In the case of `Cc1nc(-c2ccc(Cl)cc2)sc1C1(C)CC(c2c(Cl)cccc2Cl)=NO1` (stereo not shown), the “hERG current change (%, negative = inhibition) at 10uM” value came to 18.3%.

On to `Clc1ncc(CN2CCN(Cc3ccccc3)CC2)s1`, for which the “hERG current change (%, negative = inhibition) at 10uM” value was -4.52%.

`COc1ccc(CNC(=O)C(=O)NC2CC(C)(C)NC(C)(C)C2)cc1`: the “hERG current change (%, negative = inhibition) at 10uM” value is given as 5.29%.

Regarding `COc1ccccc1NC(=O)CSc1ccc2nnc(-c3cccnc3)n2n1`, the “hERG current change (%, negative = inhibition) at 10uM” value is listed as -57%.

For `CN(C)CCCN1C(=O)c2cccc3c([N+](=O)[O-])ccc(c23)C1=O`, the “hERG current change (%, negative = inhibition) at 10uM” value was -27.7%.

As for `O=C(Cc1cn2ccsc2n1)OCc1ccccc1`, the “hERG current change (%, negative = inhibition) at 10uM” value is reported as -6.37%.

Take `COc1ccccc1CNC(=S)NCc1ccc(Cl)cc1`: the “hERG current change (%, negative = inhibition) at 10uM” value amounted to 6.84%.

In the case of `O=C(CN1C(=O)COc2ccc(S(=O)(=O)N3CCCC3)cc21)N1CCCC1`, the “hERG current change (%, negative = inhibition) at 10uM” value was 9.85%.

Turning to `CCOP(=O)(OCC)c1nc(-c2ccc(Cl)cc2)oc1NCc1ccccc1`, the “hERG current change (%, negative = inhibition) at 10uM” value is given as -10.7%.

On to `CC(C)CN(C(=O)C(c1ccccc1)c1ccccc1)c1c(N)n(CC(C)C)c(=O)[nH]c1=O`, for which the “hERG current change (%, negative = inhibition) at 10uM” value is listed as -3.56%.

Take `CCOC(=O)c1ccc2nc3c(cc2c1)CCS3`: the “hERG current change (%, negative = inhibition) at 10uM” value was 5.64%.

As to `O=C(O)c1ccc(-n2nc(-c3ccccc3)c3ccccc3c2=O)cc1`, the “hERG current change (%, negative = inhibition) at 10uM” value is reported as 25.5%.

Take `CC1CCCC(n2c(=S)[nH]c3ccccc3c2=O)C1C` (stereo not shown): the “hERG current change (%, negative = inhibition) at 10uM” value came to 6.63%.

Consider `Cc1ccccc1NC(=O)CCS(=O)(=O)c1cccc2nonc12`, for which the “hERG current change (%, negative = inhibition) at 10uM” value came out at 20.8%.

For the compound `O=C1c2ccccc2C(Nc2ccc(S(=O)(=O)N3CCCCCC3)cc2)N1Cc1ccco1` (stereo not shown), the “hERG current change (%, negative = inhibition) at 10uM” value is reported as -19.5%.

As for `Cc1csc(SCC(=O)NC(=O)Cc2ccccc2)n1`, the “hERG current change (%, negative = inhibition) at 10uM” value is listed as 16.9%.

Take `O=[N+]([O-])c1cc(S(=O)(=O)Nc2cccc(Cl)c2)ccc1N/N=C/c1ccc(N2CCOCC2)cc1`: the “hERG current change (%, negative = inhibition) at 10uM” value is -5.9%.

As for `CCc1nnc(NC(=O)CSc2nnc(COc3ccc(C)cc3)n2-c2ccccc2)s1`, the “hERG current change (%, negative = inhibition) at 10uM” value is reported as -1.92%.

Regarding `CCNC(=O)N(CCOC)CC1CCCN(C2Cc3ccccc3C2)C1` (stereo not shown), the “hERG current change (%, negative = inhibition) at 10uM” value is given as -22.9%.

As for `COc1cccc(N(CC(=O)N2CCN(C)CC2)S(=O)(=O)c2ccccc2)c1`, the “hERG current change (%, negative = inhibition) at 10uM” value is listed as -7.6%.

Turning to `C=CCN(C(=O)CN1CCCCC1)c1nc(-c2ccccc2)cs1`, the “hERG current change (%, negative = inhibition) at 10uM” value is given as -7.36%.

For `NC(=O)CCc1nc2cc(C(F)(F)F)ccc2n(Cc2ccccc2)c1=O`, the “hERG current change (%, negative = inhibition) at 10uM” value is -19.4%.

As to `O=C(C[N+]12CCC(CC1)C(O)C2)c1ccc(Br)cc1.[Br-]` (stereo not shown), the “hERG current change (%, negative = inhibition) at 10uM” value is 1.74%.

For `COc1cc(NC(=O)COc2cccc(OC)c2)cc(OC)c1`, the “hERG current change (%, negative = inhibition) at 10uM” value is listed as -9.09%.

Take `Cc1ccccc1C(=O)O/N=C1\CCS(=O)(=O)c2sccc21`: the “hERG current change (%, negative = inhibition) at 10uM” value amounted to 8.17%.

In the case of `COc1ccc(C(CNC(=O)Cc2ccccc2Cl)N2CCCCC2)cc1` (stereo not shown), the “hERG current change (%, negative = inhibition) at 10uM” value is 23%.

For `COc1ccc(CN(CC(=O)NCc2ccccc2)C(=O)CCC(=O)Nc2cc(C)ccn2)cc1`, the “hERG current change (%, negative = inhibition) at 10uM” value was -17.2%.

With `COc1ccccc1-c1noc2ncnc(Nc3cccc(C)c3C)c12`, the “hERG current change (%, negative = inhibition) at 10uM” value was -4.27%.

As for `O=C(O)c1ccccc1OCC1CCCO1` (stereo not shown), the “hERG current change (%, negative = inhibition) at 10uM” value was 20.8%.

Turning to `O=C(Nc1ccc(F)cc1F)c1ccc(-n2cncn2)nc1`, the “hERG current change (%, negative = inhibition) at 10uM” value is recorded as -6.88%.

Regarding `Cc1ccc(C(C)C)c(OC/C(O)=C(\C#N)c2nc3ccccc3[nH]2)c1`, the “hERG current change (%, negative = inhibition) at 10uM” value is given as -15.7%.

Consider `CC1CCN(C(=O)C2CCCCN2S(=O)(=O)c2cccc([N+](=O)[O-])c2)CC1` (stereo not shown), for which the “hERG current change (%, negative = inhibition) at 10uM” value is reported as 1.35%.

For the compound `COc1ccc(S(=O)(=O)N(CC(=O)NC2CCCCC2)c2ccc(F)cc2)cc1`, the “hERG current change (%, negative = inhibition) at 10uM” value is reported as 17.2%.

`CCC(C)c1ccc(OCC(=O)Nc2ccc(Cl)cn2)cc1` (stereo not shown): the “hERG current change (%, negative = inhibition) at 10uM” value is -0.19%.

For `CCn1cc(C(=O)NCc2ccco2)c(=O)c2cc(F)c(N3CCN(C(=O)c4ccco4)CC3)cc21`, the “hERG current change (%, negative = inhibition) at 10uM” value is given as -26.4%.

On to `O=C(NC1CCN(C(=O)N2c3ccccc3Sc3ccccc32)CC1)c1ccccc1F`, for which the “hERG current change (%, negative = inhibition) at 10uM” value is recorded as 6.04%.

With `CCCc1cc2c(cc1NC(=O)c1ccccc1F)OCO2`, the “hERG current change (%, negative = inhibition) at 10uM” value is -11.3%.

Take `Cc1ccccc1NCc1ccc(O)c2ncccc12`: the “hERG current change (%, negative = inhibition) at 10uM” value is recorded as 5.62%.

With `CCOc1ccc(C(=O)NCc2ccco2)cc1OC`, the “hERG current change (%, negative = inhibition) at 10uM” value is given as 10.3%.

For the compound `Cc1nn(C)c(C)c1S(=O)(=O)N1CCCC(C(=O)N2CCN(c3ccc(Cl)cc3)CC2)C1` (stereo not shown), the “hERG current change (%, negative = inhibition) at 10uM” value is listed as -70.4%.

For `CCc1ccccc1NC(=O)CCOc1ccccc1`, the “hERG current change (%, negative = inhibition) at 10uM” value was found to be 9.95%.

For the compound `Cc1ccccc1OC(C)C(=O)NCCC1=CCCCC1` (stereo not shown), the “hERG current change (%, negative = inhibition) at 10uM” value was -1.85%.

Regarding `NC(=O)N/N=C/c1cn(-c2ccccc2)nc1-c1ccccc1`, the “hERG current change (%, negative = inhibition) at 10uM” value is -6.63%.

Consider `CCC(=O)Nc1ccc2nc(C)n(Cc3ccccc3Cl)c(=O)c2c1`, for which the “hERG current change (%, negative = inhibition) at 10uM” value was -0.491%.
